Measurements published in a collection of fitness landscapes (doi:10.1016/j.celrep.2020.107928).
Whole data set: some 81,000 sequences, median “one-hybrid fitness for binding parS DNA” near -0.17, cut for the highest 2% near 0.51. This is one part of the list.

B1: Caulobacter ParB omega fusion; a variant is named by its letters at X, in order, B8GW30 (parent)
chain: MESVVVGEPGMSEGRRGLGRGLSALLGEVDAAPAQAPGEQLGGSREAPIEILQRNPDQPRRTFREEDLEDLSNSIREKGVLQPILVRPSPDTAGEYQIVAGERAWRAAQRAGLKTVPIMVRELDDLAVLEIGIIENVQRADLNVLEEALSYKVLMEKFERTQENIAQTIGKSXSHVANXMRLLXLPDEVQSYLVSGELTAXHARAIAAAADPVALAKQIIEGGLSVRETEALARKAPNLSAGKSKGGRPPRVKDTDTQALESDLSSVLGLDVSIDHRGSTGTLTITYATLEQLDDLCNRLTRGI

Variants of: B1
Test: one-hybrid fitness for binding parS DNA (scaled: cognate 1, non-cognate 0); higher = stronger binding
Conditions: with parS DNA site
Procedure, shortened: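 Bacterial one-hybrid selection in E. coli USO rpoZ- hisB- pyrF- with a HIS3 reporter carrying the site 19 bp from the promoter, screening Caulobacter ParB libraries with four specificity codons randomised (NNS). Cells grew 48 hours at 37°C on M9-minus-histidine plus 0.1 mM IPTG and 5 mM 3-AT. Plasmids before and after selection were Illumina-sequenced, three replicate libraries pooled, and variants under 10 reads dropped. Fitness is the log change in variant-to-wild-type read ratio, rescaled to cognate 1, non-cognate 0.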

Variant | one-hybrid fitness for binding parS DNA
EHHI | ≤ 0.2
KHTT | ≤ 0.2
ANDG | ≤ 0.2
LPGV | ≤ 0.2
SMPI | ≤ 0.2
DGPG | ≤ 0.2
REPW | ≤ 0.2
PARR | ≤ 0.2
RVRA | 0.689
IKGW | ≤ 0.2
MGLG | ≤ 0.2
CSLD | ≤ 0.2
QMHT | ≤ 0.2
VELS | ≤ 0.2
MTDP | ≤ 0.2
GHGC | ≤ 0.2
SHLG | ≤ 0.2
MCHV | ≤ 0.2
IAEG | ≤ 0.2
LTVL | ≤ 0.2
TFLC | ≤ 0.2
PFKH | ≤ 0.2
RDRA | ≤ 0.2
PWFR | ≤ 0.2
HYNK | ≤ 0.2

Variant | one-hybrid fitness for binding parS DNA
RLAR | ≤ 0.2
LIRI | ≤ 0.2
QPDT | ≤ 0.2
WLCS | ≤ 0.2
QMTG | ≤ 0.2
GPGK | ≤ 0.2
MKFG | ≤ 0.2
RQAC | 0.947
SRDN | ≤ 0.2
YITG | ≤ 0.2
ERRC | ≤ 0.2
QTFQ | ≤ 0.2
RGYN | ≤ 0.2
VGLY | ≤ 0.2
THDW | ≤ 0.2
PYKR | ≤ 0.2
TYRN | ≤ 0.2
VKTY | ≤ 0.2
PCRY | ≤ 0.2
RTPT | 0.558
HVAI | ≤ 0.2
ESLH | ≤ 0.2
VDAC | ≤ 0.2
ESWS | ≤ 0.2
QACS | ≤ 0.2

Variant | one-hybrid fitness for binding parS DNA
ICFG | ≤ 0.2
PTRA | ≤ 0.2
APCR | ≤ 0.2
RYTL | ≤ 0.2
VRHC | ≤ 0.2
YHVR | ≤ 0.2
VNPL | ≤ 0.2
NNTD | ≤ 0.2
MTPS | ≤ 0.2
RDPL | ≤ 0.2
YGCG | ≤ 0.2
PTLS | ≤ 0.2
TARW | ≤ 0.2
RDQA | ≤ 0.2
DKNL | ≤ 0.2
YHNQ | ≤ 0.2
QMRA | ≤ 0.2
RCMP | 0.232
YCLV | ≤ 0.2
HRQC | 0.257
CVTK | ≤ 0.2
GSSY | ≤ 0.2
YEQT | ≤ 0.2
PKTV | ≤ 0.2
KTLW | ≤ 0.2

Variant | one-hybrid fitness for binding parS DNA
KEAS | ≤ 0.2
QVPL | ≤ 0.2
DNAT | ≤ 0.2
AHYA | ≤ 0.2
AHYR | ≤ 0.2
MSDR | ≤ 0.2
RYPA | 0.212
NKGV | ≤ 0.2
NLYS | ≤ 0.2
KDQT | ≤ 0.2
PCNE | ≤ 0.2
DSWN | ≤ 0.2
KYNE | ≤ 0.2
PVME | ≤ 0.2
GRMK | ≤ 0.2
GCWL | ≤ 0.2
IRHI | ≤ 0.2
FRCN | ≤ 0.2
YECR | ≤ 0.2
VNMN | ≤ 0.2
KVNN | ≤ 0.2
NFLI | ≤ 0.2
ARIV | ≤ 0.2
QLYL | ≤ 0.2
RIFF | 0.297

Variant | one-hybrid fitness for binding parS DNA
RIHC | 0.977
SQDA | ≤ 0.2
PGHG | ≤ 0.2
PMVY | ≤ 0.2
QHAS | ≤ 0.2
MFTG | ≤ 0.2
KLRG | ≤ 0.2
CQDR | ≤ 0.2
PKGV | ≤ 0.2
RNIE | ≤ 0.2
ARKE | ≤ 0.2
ILVT | ≤ 0.2
HFTR | ≤ 0.2
NENG | ≤ 0.2
ARLE | ≤ 0.2
NEIG | ≤ 0.2
AAND | ≤ 0.2
MMNT | ≤ 0.2
LVRF | ≤ 0.2
IMYR | ≤ 0.2
IFES | ≤ 0.2
QTCW | ≤ 0.2
PFYL | ≤ 0.2
DFTW | ≤ 0.2
IRRH | ≤ 0.2

Variant | one-hybrid fitness for binding parS DNA
KLFV | ≤ 0.2
PSLK | ≤ 0.2
QVRT | ≤ 0.2
YPRV | ≤ 0.2
NLRY | ≤ 0.2
NPRG | ≤ 0.2
TSHY | ≤ 0.2
VSTT | ≤ 0.2
VVFM | ≤ 0.2
GPKI | ≤ 0.2
QSTC | ≤ 0.2
YIGC | ≤ 0.2
RRMN | 0.4
PLEP | ≤ 0.2
SEYG | ≤ 0.2
QAVG | ≤ 0.2
TRCW | ≤ 0.2
ELKL | ≤ 0.2
VVKK | 0.226
PGGG | ≤ 0.2
CMSL | ≤ 0.2
PQSN | ≤ 0.2
TSSN | ≤ 0.2
GSHS | ≤ 0.2
FWIS | ≤ 0.2

Variant | one-hybrid fitness for binding parS DNA
REGM | ≤ 0.2
LDCE | ≤ 0.2
MGAY | ≤ 0.2
GSTG | ≤ 0.2
YNSG | ≤ 0.2
EGTG | ≤ 0.2
QYKL | ≤ 0.2
FACR | ≤ 0.2
IFHT | ≤ 0.2
GPAP | ≤ 0.2
MAWG | ≤ 0.2
RQRP | ≤ 0.2
CLGI | ≤ 0.2
QQHE | ≤ 0.2
TLYG | ≤ 0.2
AQWR | ≤ 0.2
CRRD | ≤ 0.2
EMWC | ≤ 0.2
HMIF | ≤ 0.2
HWKG | ≤ 0.2
GRVV | ≤ 0.2
QARL | ≤ 0.2
AGSR | ≤ 0.2
ASNM | ≤ 0.2
RKHM | 0.21

Variant | one-hybrid fitness for binding parS DNA
CMQG | ≤ 0.2
NAPM | ≤ 0.2
FWEW | ≤ 0.2
TMYV | ≤ 0.2
QYKT | ≤ 0.2
RVWF | 0.25
VIIC | ≤ 0.2
TSPP | ≤ 0.2
QTQI | ≤ 0.2
QCWS | ≤ 0.2
CYMQ | ≤ 0.2
YLRF | ≤ 0.2
RTQC | 0.974
QTDF | ≤ 0.2
PAFG | ≤ 0.2
NVFR | ≤ 0.2
HNSK | ≤ 0.2
SLSE | ≤ 0.2
DHGR | ≤ 0.2
AHPE | ≤ 0.2
